Results on 31 molecules are retold here after publication PMC9911399, “Two distinct binding modes provide the RNA-binding protein RbFox with extraordinary sequence specificity”.

T1: RBFOX1 RRM (Homo sapiens, UniProt Q9NWB1 109-208)
T1 sequence: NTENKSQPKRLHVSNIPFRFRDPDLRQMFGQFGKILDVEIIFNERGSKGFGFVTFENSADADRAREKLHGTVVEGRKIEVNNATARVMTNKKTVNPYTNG

B1: ACAGGAG (DNA:RNA)
RNA: GGGAGACCGGAAUUCAGAUUGUCCACAGGAGUUAAAUCCCGUCGUAGCCACCA
DNA 1: CAATCTGAATTCCGGTCTCCC
DNA 2: TGGTGGCTACGACGGGATT
B2: GUGAGGC (DNA:RNA)
RNA: B1 RNA with A25G, C26U, A27G, G28A, A30G, G31C
DNA 1: CAATCTGAATTCCGGTCTCCC
DNA 2: TGGTGGCTACGACGGGATT
B3: AUGCCGC (DNA:RNA)
RNA: B1 RNA with C26U, A27G, G28C, G29C, A30G, G31C
DNA 1: CAATCTGAATTCCGGTCTCCC
DNA 2: TGGTGGCTACGACGGGATT
B4: UAUGUCA (DNA:RNA)
RNA: B1 RNA with A25U, C26A, A27U, G29U, A30C, G31A
DNA 1: CAATCTGAATTCCGGTCTCCC
DNA 2: TGGTGGCTACGACGGGATT
B5: CCGCCAA (DNA:RNA)
RNA: B1 RNA with A25C, A27G, G28C, G29C, G31A
DNA 1: CAATCTGAATTCCGGTCTCCC
DNA 2: TGGTGGCTACGACGGGATT
B6: GACGCGA (DNA:RNA)
RNA: B1 RNA with A25G, C26A, A27C, G29C, A30G, G31A
DNA 1: CAATCTGAATTCCGGTCTCCC
DNA 2: TGGTGGCTACGACGGGATT
B7: UGUAAUC (DNA:RNA)
RNA: GGGAGACCGGAAUUCAGAUUGUCCUGUAAUCUUAAAUCCCGUCGUAGCCACCA
DNA 1: CAATCTGAATTCCGGTCTCCC
DNA 2: TGGTGGCTACGACGGGATT
B8: GCAAACC (DNA:RNA)
RNA: B7 RNA with U25G, G26C, U27A, U30C
DNA 1: CAATCTGAATTCCGGTCTCCC
DNA 2: TGGTGGCTACGACGGGATT
B9: ACGGCGC (DNA:RNA)
RNA: B1 RNA with A27G, G29C, A30G, G31C
DNA 1: CAATCTGAATTCCGGTCTCCC
DNA 2: TGGTGGCTACGACGGGATT
B10: CUCACAA (DNA:RNA)
RNA: B1 RNA with A25C, C26U, A27C, G28A, G29C, G31A
DNA 1: CAATCTGAATTCCGGTCTCCC
DNA 2: TGGTGGCTACGACGGGATT
B11: CGCUUCA (DNA:RNA)
RNA: B7 RNA with U25C, U27C, A28U, A29U, U30C, C31A
DNA 1: CAATCTGAATTCCGGTCTCCC
DNA 2: TGGTGGCTACGACGGGATT
B12: AGCAAAG (DNA:RNA)
RNA: B1 RNA with C26G, A27C, G28A, G29A
DNA 1: CAATCTGAATTCCGGTCTCCC
DNA 2: TGGTGGCTACGACGGGATT
B13: AGACGAA (DNA:RNA)
RNA: B1 RNA with C26G, G28C, G31A
DNA 1: CAATCTGAATTCCGGTCTCCC
DNA 2: TGGTGGCTACGACGGGATT
B14: GCCCCGA (DNA:RNA)
RNA: B1 RNA with A25G, A27C, G28C, G29C, A30G, G31A
DNA 1: CAATCTGAATTCCGGTCTCCC
DNA 2: TGGTGGCTACGACGGGATT
B15: AGAAGUG (DNA:RNA)
RNA: B1 RNA with C26G, G28A, A30U
DNA 1: CAATCTGAATTCCGGTCTCCC
DNA 2: TGGTGGCTACGACGGGATT
B16: UCAGAGA (DNA:RNA)
RNA: B1 RNA with A25U, G29A, A30G, G31A
DNA 1: CAATCTGAATTCCGGTCTCCC
DNA 2: TGGTGGCTACGACGGGATT
B17: UAUAAGU (DNA:RNA)
RNA: B7 RNA with G26A, U30G, C31U
DNA 1: CAATCTGAATTCCGGTCTCCC
DNA 2: TGGTGGCTACGACGGGATT
B18: CCGGACA (DNA:RNA)
RNA: B1 RNA with A25C, A27G, G29A, A30C, G31A
DNA 1: CAATCTGAATTCCGGTCTCCC
DNA 2: TGGTGGCTACGACGGGATT
B19: UGUAUCU (DNA:RNA)
RNA: B7 RNA with A29U, U30C, C31U
DNA 1: CAATCTGAATTCCGGTCTCCC
DNA 2: TGGTGGCTACGACGGGATT
B20: ACCGACA (DNA:RNA)
RNA: B1 RNA with A27C, G29A, A30C, G31A
DNA 1: CAATCTGAATTCCGGTCTCCC
DNA 2: TGGTGGCTACGACGGGATT
B21: AAGUACA (DNA:RNA)
RNA: B1 RNA with C26A, A27G, G28U, G29A, A30C, G31A
DNA 1: CAATCTGAATTCCGGTCTCCC
DNA 2: TGGTGGCTACGACGGGATT
B22: UUGGAUU (DNA:RNA)
RNA: B7 RNA with G26U, U27G, A28G, C31U
DNA 1: CAATCTGAATTCCGGTCTCCC
DNA 2: TGGTGGCTACGACGGGATT
B23: UAUAAAG (DNA:RNA)
RNA: B7 RNA with G26A, U30A, C31G
DNA 1: CAATCTGAATTCCGGTCTCCC
DNA 2: TGGTGGCTACGACGGGATT
B24: GUGGUAG (DNA:RNA)
RNA: B1 RNA with A25G, C26U, A27G, G29U
DNA 1: CAATCTGAATTCCGGTCTCCC
DNA 2: TGGTGGCTACGACGGGATT
B25: GGGUUCG (DNA:RNA)
RNA: B1 RNA with A25G, C26G, A27G, G28U, G29U, A30C
DNA 1: CAATCTGAATTCCGGTCTCCC
DNA 2: TGGTGGCTACGACGGGATT
B26: AUGUCAA (DNA:RNA)
RNA: B1 RNA with C26U, A27G, G28U, G29C, G31A
DNA 1: CAATCTGAATTCCGGTCTCCC
DNA 2: TGGTGGCTACGACGGGATT
B27: CGCCACC (DNA:RNA)
RNA: B7 RNA with U25C, U27C, A28C, U30C
DNA 1: CAATCTGAATTCCGGTCTCCC
DNA 2: TGGTGGCTACGACGGGATT
B28: UAUUCAG (DNA:RNA)
RNA: B1 RNA with A25U, C26A, A27U, G28U, G29C
DNA 1: CAATCTGAATTCCGGTCTCCC
DNA 2: TGGTGGCTACGACGGGATT
B29: GCACACU (DNA:RNA)
RNA: B1 RNA with A25G, G28C, G29A, A30C, G31U
DNA 1: CAATCTGAATTCCGGTCTCCC
DNA 2: TGGTGGCTACGACGGGATT
B30: CAUAAAA (DNA:RNA)
RNA: B7 RNA with U25C, G26A, U30A, C31A
DNA 1: CAATCTGAATTCCGGTCTCCC
DNA 2: TGGTGGCTACGACGGGATT
B31: ACGGCCU (DNA:RNA)
RNA: B1 RNA with A27G, G29C, A30C, G31U
DNA 1: CAATCTGAATTCCGGTCTCCC
DNA 2: TGGTGGCTACGACGGGATT

Positions count from the first letter of the chain named. The list shows a part of the results.

In this assay the target is T1, RBFOX1 RRM. Kind of assay: EMSA; HiTS-Eq, 1 nM pool, 10 min; buffer printed only for the single-RNA assays: 10 mM Tris pH 7.5, 150 mM NaCl, 3.4 mM EDTA, 0.001% NP-40, 30 C. The following applies: tags: His6 N-terminal (pET28a); label: 5' 32P. Put shortly:
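Relative association constants, normalised to the cognate motif, were derived by comparing read counts of each RNA species with those of the control reaction. The RNA sequenced was the free fraction, separated by 8% native PAGE after a 10 min equilibration in 50 µL of 1 nM 5′-radiolabelled RNA (7 randomized nucleotides) with increasing concentrations of purified wild-type or mutant RbFox RRM.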
(In general: In EMSA bound probe runs differently from free probe, usually more slowly.)
Regarding B1, the binding signal was 0.00486 KA relative to UGCAUGU.

On to B2, for which the binding signal is 0.0084 KA relative to UGCAUGU.

On to B3, for which the binding signal was 0.0112 KA relative to UGCAUGU.

In the case of B4, the binding signal is 0.0112 KA relative to UGCAUGU.

Turning to B5, the binding signal was 0.00228 KA relative to UGCAUGU.

As for B6, the binding signal is 0.0138 KA relative to UGCAUGU.

In the case of B7, the binding signal was 0.0104 KA relative to UGCAUGU.

For the molecule B8, the binding signal was 0.00398 KA relative to UGCAUGU.

As to B9, the binding signal was 0.0112 KA relative to UGCAUGU.

In the case of B10, the binding signal is 0.00131 KA relative to UGCAUGU.

With B11, the binding signal is 0.0083 KA relative to UGCAUGU.

As to B12, the binding signal is 0.00369 KA relative to UGCAUGU.

For B13, the binding signal is 0.00581 KA relative to UGCAUGU.

As for B14, the binding signal is 0.00208 KA relative to UGCAUGU.

B15: the binding signal is 0.0107 KA relative to UGCAUGU.

As for B16, the binding signal was 0.0115 KA relative to UGCAUGU.

As to B17, the binding signal was 0.0102 KA relative to UGCAUGU.

Turning to B18, the binding signal was 0.008 KA relative to UGCAUGU.

B19: the binding signal was 0.0151 KA relative to UGCAUGU.

B20: the binding signal is 0.00356 KA relative to UGCAUGU.

As to B21, the binding signal was 0.00261 KA relative to UGCAUGU.

As for B22, the binding signal is 0.0127 KA relative to UGCAUGU.

For the molecule B23, the binding signal is 0.00532 KA relative to UGCAUGU.

Take B24: the binding signal is 0.0176 KA relative to UGCAUGU.

Take B25: the binding signal was 0.026 KA relative to UGCAUGU.

Regarding B26, the binding signal was 0.00745 KA relative to UGCAUGU.

Take B27: the binding signal is 0.00532 KA relative to UGCAUGU.

Turning to B28, the binding signal was 0.0169 KA relative to UGCAUGU.

On to B29, for which the binding signal was 0.00505 KA relative to UGCAUGU.

For B30, the binding signal was 0.000631 KA relative to UGCAUGU.

On to B31, for which the binding signal is 0.0126 KA relative to UGCAUGU.
